From PubChem BioAssay AID488969 (Vanderbilt High Throughput Screening Facility, 2010)
Over roughly 110,000 compounds, “z-score” has its median near -0.1; the highest 2% begin near 2. The list shows a part of the results.

Each compound was assayed against Metabotropic glutamate receptor 8 (Rattus norvegicus) (UniProt P70579) (assay: mGluR8 Gi/Go-coupled signaling modulation – cell-based, rat, thallium flux, HTS, primary screen (AID 488969)). Details: HEK293 rat mGluR8, GIRK (G protein-gated inwardly rectifying potassium channel) thallium flux, FluoZin2; at 10 µM; stronger effect = higher value; submaximal glutamate (EC20) added with thallium.
Sequence of UniProt P70579 (P70579 whole entry, looked up): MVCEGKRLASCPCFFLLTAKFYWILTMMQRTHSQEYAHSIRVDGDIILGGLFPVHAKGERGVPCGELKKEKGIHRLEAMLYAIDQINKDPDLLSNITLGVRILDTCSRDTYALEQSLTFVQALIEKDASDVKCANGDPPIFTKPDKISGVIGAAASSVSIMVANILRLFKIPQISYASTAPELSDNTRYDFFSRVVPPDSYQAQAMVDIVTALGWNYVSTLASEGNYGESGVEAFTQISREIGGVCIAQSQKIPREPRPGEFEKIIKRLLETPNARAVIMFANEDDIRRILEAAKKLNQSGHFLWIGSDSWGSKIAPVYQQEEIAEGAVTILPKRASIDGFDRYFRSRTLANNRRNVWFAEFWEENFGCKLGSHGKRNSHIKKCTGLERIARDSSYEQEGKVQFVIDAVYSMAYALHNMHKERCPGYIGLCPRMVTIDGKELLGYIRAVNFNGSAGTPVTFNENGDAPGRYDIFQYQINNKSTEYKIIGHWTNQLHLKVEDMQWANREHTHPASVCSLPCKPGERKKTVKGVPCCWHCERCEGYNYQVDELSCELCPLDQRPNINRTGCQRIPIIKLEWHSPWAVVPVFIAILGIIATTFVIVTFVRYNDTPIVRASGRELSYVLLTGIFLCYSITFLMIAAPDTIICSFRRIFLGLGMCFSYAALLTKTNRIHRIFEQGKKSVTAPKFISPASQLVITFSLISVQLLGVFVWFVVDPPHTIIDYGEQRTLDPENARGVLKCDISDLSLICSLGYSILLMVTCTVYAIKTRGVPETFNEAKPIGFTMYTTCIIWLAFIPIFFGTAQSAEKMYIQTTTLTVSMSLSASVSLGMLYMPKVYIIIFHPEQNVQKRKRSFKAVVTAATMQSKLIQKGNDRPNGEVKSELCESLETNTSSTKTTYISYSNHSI
Compound `CC1Cc2cc(/C(O)=C3/C(=O)C(=O)N(CCN4CCOCC4)C3c3cccc(O)c3)ccc2O1` (stereo unspecified) has a z-score of 0.287.
`COCCCN(C(C)=O)c1nc(-c2ccccc2)cs1` showed a z-score of 1.18.
For `Clc1ccccc1C(c1nnnn1Cc1ccco1)N1CCN(Cc2ccco2)CC1` (stereo unspecified), the z-score was -0.495.
`O=C(CSc1nnc2scc(-c3ccccc3)n12)Nc1nsc(-c2ccc(Cl)cc2)n1` was tested, and the z-score was 0.064.
`COc1ccc(NC(=O)c2oc3ccccc3c2NC(=O)c2ccco2)cc1` gave a z-score of -0.249.
`Cc1nc2cccc(C(=O)NCc3ccccc3)c2o1` was tested, and the z-score was -0.869.
With `COc1ccc(C2C(C#N)C(C#N)N3CCCN23)cc1` (stereo unspecified) the z-score was -0.362.
`O=P1(O)C=C(c2ccccc2)NC(c2ccccc2)=C1` was tested, and the z-score was -0.601.
`COc1ccc(C(=O)Nc2cccc(C(C)=O)c2)cc1S(=O)(=O)N1CCOCC1` gave a z-score of -0.0369.
`CN(C)S(=O)(=O)c1ccc(C(=O)NCc2ccccc2)cc1` showed a z-score of -0.487.
With `CNC(=O)/C=C1\NC(C)(C)Cc2ccccc21` the z-score was -0.218.
`CCOc1cc(C#N)c(NC(=O)c2cccnc2Cl)cc1OCC` was tested, and the z-score was 0.172.
`c1ccc(-n2nnnc2SCc2ccccn2)cc1` showed a z-score of 0.236.
`CCOC(=O)C1CCCN(C(=O)Cc2c(F)cccc2Cl)C1` (stereo unspecified) gave a z-score of -0.847.
`O=C(NCc1ccco1)[C@@H]1CCCN1C(=O)c1cccs1` showed a z-score of 0.505.
`Cc1cc(C)c(Cc2c(C)nc3c(C(=O)NCc4ccco4)cnn3c2C)c(C)c1` was tested, and the z-score was -0.167.
Compound `O=C(COc1ccc(/C=N/NC(=O)c2ccc(O)cc2)cc1)Nc1ccc([N+](=O)[O-])cc1` has a z-score of 0.00315.
With `S=C1NCCOCCOCCOCCOCCNC(=S)NCCOCCOCCOCCOCCN1` the z-score was 0.00625.
Compound `O=C(O)C(CCCCN1C(=O)C2C3C=CC(C3)C2C1=O)N1C(=O)C2C3C=CC(C3)C2C1=O` (stereo unspecified) has a z-score of -0.105.
For `CONC(=O)C1CCN(C(=O)OCc2ccccc2)CC1`, the z-score was 0.068.
Compound `CC(OC(=O)c1cccs1)C(=O)NCc1cccs1` (stereo unspecified) has a z-score of 0.042.
`O=c1c(N2CCCCC2)coc2ccccc12` gave a z-score of -0.859.
Compound `CNc1nc2ccccc2n1/N=C/c1cccc(OC)c1OC` has a z-score of -1.51.
`CN(N)C(=S)NCc1ccccc1` showed a z-score of -0.0266.
Work on `c1ccc(-c2noc(-c3cccnc3)n2)nc1` yielded a z-score of 0.0764.
In the case of `CCn1c(=O)c(C(=O)Nc2cccnc2)c(O)c2ccccc21`, the z-score is reported as 0.352.
Compound `O=c1[nH]nc(Cc2ccccc2)c2ccccc12` has a z-score of -0.437.
`Cc1ccc(-n2[nH]c(C)c(/C=N/Nc3ccc([N+](=O)[O-])cc3[N+](=O)[O-])c2=O)cc1C` showed a z-score of -0.809.
With `COc1ccc(NC(=O)c2cccc(S(=O)(=O)N3CCOCC3)c2)cn1` the z-score was -0.0155.
In the case of `Cc1nnc(SCc2cn3ccsc3n2)n(N)c1=O`, the z-score is reported as 0.619.
`O=C(Nc1ccc(Cl)cc1)NC1(C(=O)NCCCN2CCOCC2)CCCCC1` was tested, and the z-score was 0.295.
With `N#Cc1c(-c2ccc(Br)cc2)nc2n(c1=O)CCCS2` the z-score was -0.096.
`COc1ccc(Cl)cc1N(C(=O)Nc1cccc(Cl)c1)C1=NCC(C)S1` (stereo unspecified) gave a z-score of -0.171.
`Cc1ccc2cc(C#N)c(SCC(=O)N3CCCc4ccccc43)nc2c1` was tested, and the z-score was -0.381.
Work on `Cc1ccc(S(=O)(=O)NC2CCC(C(=O)O)CC2)cc1` (stereo unspecified) yielded a z-score of -0.708.
`Fc1ccc(Br)cc1C1C=C(c2ccc(Br)cc2)Nc2ncnn21` (stereo unspecified) gave a z-score of -0.401.
Work on `Fc1ccc(CCNC(=S)Nc2ccc(F)cc2)cc1` yielded a z-score of 0.103.
`N#Cc1c(N)sc2c1CCN(C(=O)OCc1ccccc1)C2` was tested, and the z-score was -0.0534.
With `CCCN1Cc2cccc(C(=O)NCc3ccccc3OC)c2C1=O` the z-score was -0.286.
`CCOC(=O)CSc1nnc(Cn2nnc(-c3ccccc3)n2)n1C` was tested, and the z-score was -0.131.
`CCCCn1c(SCC(=O)Nc2ccccc2C(F)(F)F)nc2ccsc2c1=O` was tested, and the z-score was 0.00651.
Work on `CCOC(=O)C(=Cc1ccc(F)cc1)C(=O)OCC` yielded a z-score of -0.17.
In the case of `Cc1nc(C)n(CC(O)COc2ccc(C(=O)c3ccccc3)cc2)n1` (stereo unspecified), the z-score is reported as 0.00952.
With `CCN1c2ccccc2NC2C1C(C(C)=O)C(=O)N2c1ccc(Cl)cc1` (stereo unspecified) the z-score was -0.229.
Compound `CC1(C)CC(=O)C(C=NCCN2CCN(C(=S)Nc3ccc(F)cc3)CC2)=C(O)C1` has a z-score of -0.0379.
With `COCCOC(=O)c1c(C)oc2ccc(OC(=O)c3cccs3)cc12` the z-score was -0.232.
`CN1c2ccsc2C(O)=C(C(=S)Nc2ccccc2)S1(=O)=O` showed a z-score of 0.327.
With `CCCc1nnc(SCC(=O)O)n1/N=C/c1ccc2c(c1)OCO2` the z-score was -0.285.
`COc1ccc(OC)c(CCNC(=O)CC2Oc3ccccc3NC2=O)c1` (stereo unspecified) gave a z-score of -0.218.
For `COc1ccc(NC2=NCCC(=O)N2Cc2cccs2)cc1`, the z-score was -0.358.
With `Cn1c(=O)[nH]c(=O)c2c1nc(NCCCn1ccnc1)n2CCOc1ccccc1` the z-score was 0.727.
`COc1ccc(CN(Cc2ccc(OC)cc2)S(=O)(=O)c2ccc(-n3cnnn3)c(C)c2)cc1` gave a z-score of 0.226.
Compound `CCN=C1Cn2c(nc3scc(-c4ccccc4)c3c2=O)CN1CC` has a z-score of 0.129.
For `C=CCN1C(=O)CN=C1Nc1cccc(C)c1`, the z-score was -0.337.
`CCOC(=O)c1ccc(C(=O)OCC)c(NC(=S)Nc2ccc([N+](=O)[O-])cc2OC)c1` gave a z-score of 1.04.
With `Cc1cc(C)c(NC(=O)CSc2ccc3nnc(CCNC(=O)c4ccccc4)n3n2)c(C)c1` the z-score was 0.745.
For `Cc1ccc(CNC(=O)C2(c3cccs3)CCOCC2)cc1`, the z-score was -0.222.
`O=P(c1ccccc1)(c1ccccc1)C(c1ccco1)N1CCOCC1` (stereo unspecified) showed a z-score of 1.06.
With `Cn1nnc2cc(NC(=O)N3CCN(c4ccccn4)CC3)ccc21` the z-score was 0.387.
`C=C(C)Cn1c(CCn2c3ccccc3c3ccccc32)n[nH]c1=S` showed a z-score of 0.0347.
`O=C1C=C(c2ccccc2)C[C@H](c2cccs2)[C@H]1n1nnc([N+](=O)[O-])n1` showed a z-score of -0.206.
With `CCOC(=O)C1=C(C)Nc2ncnn2C1c1ccccc1F` (stereo unspecified) the z-score was 0.124.
For `Cc1nc(CSc2nnc3scc(-c4ccc(Cl)cc4)n23)cs1`, the z-score was -0.456.
In the case of `Cc1ccccc1OCc1nnc(SCC(=O)Nc2ccc(N3CCOCC3)c(Cl)c2)n1C`, the z-score is reported as -0.103.
In the case of `Cc1cc(C(=O)COC(=O)c2n[nH]c3ccccc23)c(C)n1CC1CCCO1` (stereo unspecified), the z-score is reported as -0.235.
With `Cc1ccc2c(COC(=O)C3=COCCO3)cc(=O)oc2c1` the z-score was -0.264.
In the case of `O=C(C1CCCN(S(=O)(=O)c2cccnc2)C1)N1CCn2c1nc1ccccc12` (stereo unspecified), the z-score is reported as -0.382.
`O=C(N=Nc1c(O)[nH]c2ccc([N+](=O)[O-])cc12)c1cc(-c2ccccc2Cl)nc2ccccc12` was tested, and the z-score was -0.0425.
In the case of `CCOc1ccc(NC(=O)CSc2ncnc3c2sc2ccccc23)cc1`, the z-score is reported as -0.0671.
With `CCCn1c(/N=C/c2ccccc2O)nc2ccccc21` the z-score was -1.25.
`Cc1cc(Cl)ccc1NC(=O)CN1CCC(C(O)(c2ccccc2)c2ccccc2)CC1` was tested, and the z-score was -0.415.
`CC(C)NS(=O)(=O)c1ccc(OCC(=O)N2CCCC2)cc1` was tested, and the z-score was -0.369.
Work on `O=C1/C(=C/c2ccc(N3CCCC3)cc2)NC(=S)N1C1CC1` yielded a z-score of 2.85.
In the case of `COc1cccc(C2=CC(c3ccc(C)cc3)n3ncnc3N2)c1` (stereo unspecified), the z-score is reported as -0.652.
`c1ccc(Nc2ccccc2Nc2ccccn2)nc1` was tested, and the z-score was -0.0266.
For `O=C(c1ccc(Cl)cc1)c1c[nH]c(C(=O)C(Cl)(Cl)Cl)c1`, the z-score was -1.4.
For `CCS(=O)(=O)c1ccc(O)c(NC(=O)COc2ccccc2)c1`, the z-score was -0.128.
`CCOc1ccccc1N1CCN(C/C=C/c2ccc(N(C)C)cc2)CC1` was tested, and the z-score was -0.298.
In the case of `COc1cccc2cc(C(=O)C3=C(O)C(=O)N(Cc4ccco4)C3c3cccnc3)oc12` (stereo unspecified), the z-score is reported as -1.04.
Work on `CCCS(=O)(=O)c1c(S(=O)(=O)CCC)c2cnccn2c1C(=O)c1ccc(CC)cc1` yielded a z-score of 0.111.
`CCCC(=O)NCCCc1nc2ccccc2n1C(C)C` gave a z-score of -0.423.
`COC(=O)c1ccc(/C=C(\C#N)c2nc3ccccc3s2)cc1` was tested, and the z-score was 0.103.
In the case of `O=C(Cc1ccccc1)Nc1cccc(-c2nc3ncccc3o2)c1`, the z-score is reported as -0.188.
Work on `O=C(CCc1nc2ccccc2s1)OCc1ccccc1F` yielded a z-score of -0.0861.
Work on `CCCn1nc2cc(C(=O)NCc3ccc(C)cc3)ccc2c1OCC` yielded a z-score of -0.255.
Work on `CSc1nsc(SCC(=O)N2CCN(c3ccccc3)CC2)n1` yielded a z-score of 0.374.
`O=C(N/N=C/c1cccs1)c1ccco1` was tested, and the z-score was 0.3.
In the case of `O=C(N/N=C/c1ccco1)c1cccs1`, the z-score is reported as -0.0413.
With `CCOc1ccc(OCC)c(S(=O)(=O)NCc2cccnc2)c1` the z-score was -0.172.
For `NC(=O)C1CCCN(CCc2ccccc2)C1` (stereo unspecified), the z-score was 0.194.
Work on `Cc1ccc(C(=O)Nc2cccnc2)cc1NC(=O)c1ccco1` yielded a z-score of -0.0258.
`CCCS(=O)(=O)N1CCN(C(=O)COc2ccc(OC)cc2)CC1` was tested, and the z-score was -0.48.
With `Cc1nc2oc3c(NCC4CCCO4)ncnc3c2c2c1COC(C)(C)C2` (stereo unspecified) the z-score was 0.197.
`CCOC(=O)C1=C(N)Oc2ccc3ccccc3c2C1c1cccnc1` (stereo unspecified) showed a z-score of -0.381.
Compound `CCOc1cc(/C=N/NC(=O)c2cc(C)[nH]n2)ccc1OC(=O)c1ccc([N+](=O)[O-])cc1` has a z-score of -0.712.
In the case of `Cc1onc(-c2ccccc2)c1C(=O)Nc1sc2c(c1C(N)=O)CCC2`, the z-score is reported as 0.59.
`CCOC(=O)N1CCC(NC(=O)C2CCN(S(=O)(=O)c3cccs3)CC2)CC1` gave a z-score of 0.219.
`Cc1cc(C)n(C(=O)c2c([N+](=O)[O-])cnn2C)n1` gave a z-score of 0.13.
Compound `COCCNC(=O)CSc1nc(N)c(NC(=O)c2ccccc2F)c(=O)[nH]1` has a z-score of -0.129.
For `COc1ccc(CCN2C(=O)CC(NCc3ccc4c(c3)OCO4)C2=O)cc1OC` (stereo unspecified), the z-score was -0.161.
`CCC(CC)C(=O)NCCc1cc2c(OC)ccc(OC)c2[nH]c1=O` gave a z-score of 0.00036.
`Cc1cc(NC(=O)c2cc(-c3cccnc3)nc3c(C)c(C)ccc23)no1` showed a z-score of -0.63.
Compound `CN(CC(=O)Nc1cccc2ccccc12)c1ccc(S(=O)(=O)N2CCOCC2)cn1` has a z-score of 0.0637.
For `O=C(CNC(=O)c1cccs1)OCC(=O)c1cccs1`, the z-score was 0.0956.
For `Cc1ccccc1OCC(=O)NCC(=O)N/N=C/C=C/c1ccccc1`, the z-score was -0.291.
`Cc1ccc(NC(=O)Cn2c(=O)n(Cc3ccco3)c(=N)c3c4c(sc32)COC(C)(C)C4)cc1` showed a z-score of -0.0547.
`Fc1cccc(NC(=S)NCc2ccccn2)c1` showed a z-score of -0.103.
With `O=c1[nH]c(SCc2n[nH]c(=S)n2-c2ccccc2)nc2ccccc12` the z-score was -1.63.
With `COc1cccc(C2CC(C(F)(F)F)n3nc(C(=O)NCc4cccnc4)cc3N2)c1` (stereo unspecified) the z-score was 0.302.
In the case of `CCOC(=O)Nc1sc(C(=O)N(C)C)c(C)c1C(=O)OCC`, the z-score is reported as -0.0884.
In the case of `Cc1cc(NS(=O)(=O)c2ccc(NC(=O)Nc3ccc4c(c3)OCO4)cc2)no1`, the z-score is reported as 0.0589.
